According to patent EP1828247B1 (Crucell Holland B.V., dated 2011):

Biological target: T1, recombinantly expressed purified soluble WNV E protein (strain 382-99), truncated form with Myc and His tags (West Nile virus strain 382-99, UniProt Q9Q6P4 291-696)
T1 construct: also called recombinant WNV-E protein; truncated E protein; not shown: Myc tag and His tag from pAdapt.myc.his
T1 sequence: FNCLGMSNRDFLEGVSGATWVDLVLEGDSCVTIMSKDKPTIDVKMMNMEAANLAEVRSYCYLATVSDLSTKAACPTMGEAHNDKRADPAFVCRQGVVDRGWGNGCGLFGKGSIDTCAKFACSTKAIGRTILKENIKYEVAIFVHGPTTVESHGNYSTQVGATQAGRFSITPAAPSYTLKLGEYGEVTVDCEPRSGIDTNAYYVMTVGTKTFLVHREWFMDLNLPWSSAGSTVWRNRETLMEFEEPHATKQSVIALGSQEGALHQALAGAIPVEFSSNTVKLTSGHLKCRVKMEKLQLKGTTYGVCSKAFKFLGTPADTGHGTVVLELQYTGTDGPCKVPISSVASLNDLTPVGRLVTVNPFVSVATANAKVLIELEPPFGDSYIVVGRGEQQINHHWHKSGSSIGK
Assay: phage antibody ELISA on coated recombinant soluble WNV E protein

B1: SC04-274 (scFv)
scFv: QVQLVQSGAEVKKPGESLKISCKGSGYSFTSYWIGWVRQMPGKGLEWMGIIYPGDSDTRYSPSFQGQVTISADRSISTAYLQWSSLKASDTAMYYCARLRGPYYDFWNGYRETHDAFNVWGQGTTVTVSSGTGGSGGTGSGTGGS[gap - about 100 residues]FGGGTKVEIKR
For B1, the “OD 492nm” value was 0.496 OD 492nm.
